# Among all 360,000 compounds or so, about 11,000 (3.1%) were called active. Inconclusive results, whose numbers are uncertain, are shown with a selection of clear calls. Calls come from the whole dose curve; as a rule, active = well fitted inhibition curve with a large enough effect; inconclusive = small, poorly fitted or top-dose-only effect; inactive = no such curve, though single readings can be large or run the other way. Potencies of inconclusive entries are left out as doubtful fits.
# Target: Schistosoma mansoni thioredoxin glutathione reductase (TGR) (UniProt Q962Y6)
# Assay: qHTS Assay for the Inhibitors of Schistosoma Mansoni Peroxiredoxins; note: nearly all actives have a fitted effect of over 60% in size
# Conditions: purified TGR, DTNB reduction, TNB absorbance 405 nm; series mostly up to 114 µM
# Outline: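 Kinetic colorimetric format: TGR-catalysed, NADPH-driven DTNB reduction monitored via TNB absorbance. Enzyme dispensed at 20 nM; compound exposure 15 min at room temperature before reaction start.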
# Potency is the fitted concentration of half-maximal effect; tags give direction and shape of the fitted curve.
row,SMILES,Potency
1,CC(C)n1c(-c2ccco2)csc1=Nc1cccnc1,inactive
2,CN(C)S(=O)(=O)c1cccc(NC(=S)Nc2cc(Cl)cc(Cl)c2)c1,"inconclusive [inhibitor, full curve]"
3,Cc1ccc2[nH]c(CSc3nnc(NC(=O)COc4ccc(F)cc4)s3)cc(=O)c2c1,inactive
4,Cc1ccc2c(CN3CCN(Cc4ccccc4)CC3)cc(=O)oc2c1,"inconclusive [inhibitor, partial curve, poor fit]"
5,CC(C)(O)C#Cc1ccccc1C(=O)NC(CC(N)=O)C(=O)O (stereo not drawn),"inconclusive [inhibitor, full curve, poor fit]"
6,O=S(=O)(Nc1nc2ccccc2nc1Cl)c1ccc(Br)cc1,inactive
7,CC#C[C@]1(O)CC[C@H]2[C@@H]3CCC4=CC(=O)CCC4=C3[C@@H](c3ccc(N(C)C)cc3)C[C@@]21C,inactive
8,CN(CCc1ccccn1)C1CCCN(S(=O)(=O)c2ccccc2Cl)C1 (stereo not drawn),"inconclusive [inhibitor, partial curve]"
9,COc1ccc(N2CC(C(=O)N(CC(C)C)c3c(N)n(Cc4ccccc4)c(=O)[nH]c3=O)CC2=O)c(OC)c1 (stereo not drawn),inactive
10,CC(C)CCNC(=O)c1cc(C(=O)c2cc(Br)ccc2O)cn(CCC(C)C)c1=O,inactive
11,C/C=C(\C)C(=O)Nc1cccc(C2=NOC3(C2)C[C@@H](C(N)=O)N(C(=O)c2ccccc2C(=O)c2ccccc2)C3)c1 (stereo partly drawn),inactive
12,CCCC(=O)Nc1nnc(SCC(=O)NC2CC2)s1,inactive
13,O=C1C=CC(=O)N1c1cccc(-c2ccccc2)c1,active: 0.708 µM
14,CC(C)C1Cc2nc(Cl)c(C#N)cc2CO1 (stereo not drawn),"inconclusive [inhibitor, partial curve]"
15,Cc1ccc(S(N)(=O)=O)cc1NC(=O)C1CC2CCC1C2 (stereo not drawn),inactive
16,O=C(COc1ccc(Cl)cc1)NCc1ccc(F)cc1,inactive
17,O=C(NNC(=O)c1ccc(Br)s1)c1ccc(F)c(S(=O)(=O)N2CCOCC2)c1,inactive
18,COc1ccc(NC(=O)C2CCCN(S(=O)(=O)c3c(C)[nH]c(=O)[nH]c3=O)C2)cc1Cl (stereo not drawn),"inconclusive [inhibitor, single point]"
19,CCCc1[nH]nc2c1C(c1cc(OC)ccc1F)C(C#N)=C(N)O2 (stereo not drawn),"inconclusive [inhibitor, partial curve]"
20,Cc1nc2ccccc2nc1CN1CCN(Cc2ccc(F)c(F)c2)C(CCO)C1 (stereo not drawn),active: 14.1 µM
21,CN(CCOC(=O)/C=C/c1ccco1)Cc1ccccc1,active: 2.51 µM
22,Nc1nnc(N2CCCCCC2)s1,inactive
23,COc1ccc(-c2nnn(CC(=O)N3CCN(c4ccccc4OC)CC3)n2)cc1OC,"inconclusive [inhibitor, single point]"
